According to ChEMBL document CHEMBL5308541, “MAIP: An Open-Source Tool to Enrich High-Throughput Screening Output and Identify Novel, Druglike Molecules with Antimalarial Activity” (ACS Med Chem Lett, 2023):
Among all 150,000 compounds or so, about 540 (0.36%) showed an effect of 50% or more. Some of the results follow.

tested on: Plasmodium falciparum; test: Primary screen in NF54 nanoGlo assay, in single point, at 2uM, 72h; a lower Z score goes with more inhibition; type: functional, Erythrocyte; conditions: timepoint 72 hour

SMILES	% Inhibition [%]	Z score
c1ccc(CN2CCN(CCNc3cc(C4CC4)ncn3)CC2)cc1	2	-0.35
Cc1n[nH]c(C)c1-c1c(-c2ccccc2)ncn1Cc1cc(C(C)C)no1	-2	0.4
C[C@@H](c1cccc(-c2cnn(CCO)c2)c1)N1CCCC1	-2	0.29
COCCNc1nc2c(c(N(C)Cc3cc(C)[nH]n3)n1)CCNCC2	-8	1.33
Cc1cc(N2CCC(NC3CCNC(c4ccccc4)C3)CC2)nc(C)n1 (stereo unspecified)	30	-6.54
C[C@H]1CC2(CCNCC2)CN1C(=O)Cn1ncn(C)c1=O	-9	1.43
CCOc1ccc2nc(N3CCC[C@H]3C(=O)N3CCN(c4nc(C)cnc4C)CC3)nc(C)c2c1	-10	1.74
Cc1nc(N2CCCC2)nc(NCC2(N3CCN(C)CC3)CCCC2)c1C	4	-0.61
O=C1C[C@H](CNc2nc(-c3ccccc3)nc3ccccc23)CN1C1CCCC1	-5	1.03
CCN(C)CC1CCN(c2nc(NCCOC)nc(N3CCC(CN(C)CC)C3)n2)C1 (stereo unspecified)	22	-4.3
CN1CCCN(CCC(=O)N2CCC3(CCNCC3)CC2)CC1	2	-0.3
c1cc(-c2ccc3c(c2)CCN3)n2ccnc2c1	3	-0.68
CS(=O)(=O)Cc1ccccc1CNC(=O)N1CCCc2n[nH]cc21	-4	0.89
COc1cccc(-c2nn(C(C)(C)C)cc2CNCc2cc(C)nn2C)c1	-1	0.08
CCCN(CC1CC1)C(=O)c1ccc(-c2nc3ccccc3[nH]2)cc1	-10	1.75
Cc1cccc(N2CCC(Nc3ncc(Br)cn3)CC2)n1	7	-1.11
COCCN(CC1CCCN2CCCCC12)C(=O)c1cc(-c2ccncc2)nc2ccc(C(C)C)cc12 (stereo unspecified)	13	-2.89
C[C@H](Oc1ccc2c(c1)OCO2)C(=O)N(C)Cc1cccc2ncccc12	-9	1.73
Oc1ccc(OC(F)(F)F)cc1-c1ccc(NC2CCCC2)nn1	7	-1.51
COCCNC(=O)c1ccc(NC(=O)N(C)C[C@@]2(C)CCN(C)C2)cc1	2	-0.47
FC(F)(F)c1cc(Oc2ccc3cn[nH]c3c2)nc(-c2cccnc2)n1	-11	2.11

SMILES	% Inhibition [%]	Z score
O[C@H]1CCCN(C2CCN(CCCn3ccnc3)CC2)C1	-1	0.21
N#Cc1ccc2[nH]c(-c3ccco3)nc2c1	-1	0.12
Cc1cccc2c(C(=O)N(C)C3CCCCCC3)cc(-c3cnc(N)nc3)nc12	3	-0.59
O=C(CNC(=O)c1cnc2ccccc2c1O)NCc1nc2ccccc2s1	-8	1.15
COc1ccc2[nH]c(CN3CCCC[C@@H]3CCN3CCOCC3)c(C)c2c1	2	-0.29
COc1cc(-c2nc3c(C(C)(C)C)cc(C(C)(C)C)c(O)c3o2)ccc1O	-14	2.4
COCCOc1ccc(-c2noc([C@]3(C)COc4ccccc4O3)n2)cc1F	2	-0.33
CC(C)c1noc(-c2ccnc(N[C@H]3CCCN(c4nccn(C)c4=O)C3)c2)n1	-7	1.31
c1ccc(-c2cc3ccc4ccccc4c3[nH]2)cc1	-6	1.13
CC(C)(C)c1ccc(=O)n(C2CCN(C(=O)c3ccc(Cl)cc3)CC2)n1	-6	1.05
Cc1ccc(Nc2ccc(NCCNC(=O)c3cnccn3)nn2)nc1	-12	2.07
CN(Cc1nc2cc(Cl)ccc2[nH]1)C(=O)NC1CCN(CCO)CC1	6	-0.98
CN(C)CCn1ncc(C(=O)NC2CCN(CC3CCCC3)CC2)c1-c1ccccc1	0	0.06
Cc1onc(-c2ccc(F)cc2)c1C(=O)N1CCN([C@@H](C)c2nc3ccccc3s2)CC1	-4	0.76
c1ccc(-c2cncc(Oc3ncncc3-c3ccccc3)c2)cc1	4	-0.65
CCN(Cc1noc(C2CC2)n1)C(=O)c1c[nH]c2ccc(OC)cc2c1=O	-8	1.62
O=C(O)c1c[nH]c2cc(F)c(F)cc2c1=O	1	-0.17
Cc1nc(NC[C@H]2CN(C)CCN2C)cc(Nc2ccccc2)n1	-2	0.46
CCCc1nc(C)c(C(=O)N2CC(C)(C)C2C2CCCO2)o1 (stereo unspecified)	-10	1.91
c1nc(Nc2ccc(OCc3noc(C4CC4)n3)cc2)c2cc[nH]c2n1	-3	0.69
CC(c1ccc(Cl)cc1)N(C(=O)C1CC2CCC1C2)C1CC1 (stereo unspecified)	-4	0.71

SMILES	% Inhibition [%]	Z score
COCCCN1CC2(CCN(C(=O)[C@@H](C)Cn3cccn3)CC2)CC1=O	-3	0.63
CCN1CCC[C@@H]1CN(Cc1ccncc1)C(=O)c1cc2sccc2[nH]1	1	-0.31
COc1ccccc1N1CCN(S(=O)(=O)c2cc(C)cs2)CC1=O	5	-0.71
CN(C)Cc1nnc(NCCC2CCN(C3CCCC3)CC2)o1	-6	1.23
CN1CCCN(Cc2ccc(CNCc3cccc(O)c3)cc2)CC1	17	-3.36
C[C@@H](c1cccc(-c2ccc(-c3nc(C4CC4)no3)cn2)c1)N1CCCC1	-5	1.05
Cc1nnc(N2CCC(Oc3ccc(F)cc3F)CC2)o1	1	-0.16
c1ccc(-c2ccnc(NCc3cccc(N4CCCC4)c3)n2)nc1	8	-1.21
C[C@H]1Cc2cc(Cn3cnc(-c4ccccc4)c3-c3cncnc3)ccc2O1	-7	1.15
Cc1ccc(N2C[C@@H](C(=O)N3CCN(C(=O)c4cc(-c5ccncc5)[nH]n4)CC3)CC2=O)cc1C	-3	0.48
Nc1nc2c(c(NCc3ccccc3-c3ccccc3)n1)CCNC2	0	-0.09
Cc1ccc(CN2CC[C@H](NCc3cc(-c4cccnc4)[nH]n3)C2)cc1	7	-1.53
CN(Cc1cccc2cnccc12)C(=O)NCCN1CCCC[C@@H]1CO	-1	0.27
Cc1nccn1CCN(C)C1CCN(c2cccc(-c3ccco3)c2)CC1	-2	0.35
Cc1nc2ccc(C(=O)Nc3cn(C)nn3)cc2nc1C	-10	2.15
O=C(Nc1cc(C2CCOCC2)[nH]n1)c1ccc(F)s1	2	-0.3
C[C@@H](c1ccncc1)N1CCC(NC(=O)c2ccc3[nH]ccc3c2)CC1	0	-0.1
Cc1ccnc(NCCn2cnc(-c3ccccc3)c2-c2cccc(C#N)c2)c1	-5	0.91
O=C(c1ccc(-c2ccc3nc[nH]c(=O)c3c2)cc1)N1CCCCCCC1	2	-0.34
Cc1ncsc1CCNCc1cn2cc(Cl)ccc2n1	-2	0.47
COCCC(=O)Nc1c(O)c(Cl)cc(Cl)c1Cl	-7	1.25

SMILES	% Inhibition [%]	Z score
NS(=O)(=O)NC[C@H]1CCCN(c2nc(-c3cccc(Cl)c3)nc3c2CCCC3)C1	-3	0.44
O=C(CC[C@@H]1CCCN2CCCC[C@H]12)N1CCN(c2ccncc2)CC1	-6	1.38
Cc1cc(C)nc(Nc2cccc(C(=O)N3CCN(CCc4ccncc4)CC3)c2)n1	-14	2.78
C[C@H]1CCCCN1C1CN(C(=O)c2ccc(-c3ccnc(N)n3)cc2)C1	-6	0.92
c1cc(-c2cnn3cccnc23)c2ccncc2c1	-4	0.61
Nc1nc(CNc2cc(-c3ccccc3)nc3ccnn23)n[nH]1	-2	0.48
C[C@H](NCCC1CCN(CC(F)(F)F)CC1)c1ccc2c(c1)OCCCO2	-5	0.69
CC[C@H](C)NC(=O)CN1CCN(C(=O)c2cc(Nc3nc(C)cc(C)n3)ccc2O)CC1	-1	0.12
CN1CCN(CCCN(CCC(=O)N2CCNCC2)C(=O)c2ccc(C(C)(C)C)cc2)CC1	-4	0.72
COc1ccccc1N1CCN([C@H]2CCCN(c3ncnc4[nH]ccc34)C2)CC1	1	-0.13
Cc1cc(-c2cccc(C(=O)NCCCN(C)C3CCCC3)c2)cnc1N	-2	0.51
c1ccc(-c2cc(NCc3nc(-c4ccncc4)n[nH]3)n3nccc3n2)cc1	-11	2.26
CNc1cc(-c2ccc3ncnc(N4CCN(C)CC4)c3c2)c2cc[nH]c2n1	19	-3.37
O=C(Nc1ccn(CCc2ccncc2)n1)c1cc2c(OC(F)(F)F)cccc2[nH]1	-3	0.53
Fc1cc(CNc2nnc(-c3ccncc3)o2)ccc1OC(F)F	0	-0.04
CCN(CC)CC1(Nc2ncnc3[nH]ccc23)CC1	-5	0.78
O=S(=O)(NCC1CC1)c1ccc(NC2CCN(C3CCCC3)CC2)nc1	-10	1.81
O=C(C[C@H]1CCCOC1)N1CCCN(CCCn2ccnc2)CC1	-5	0.9
Cc1[nH]c(C(=O)O)c(C)c1C(=O)NCC[C@H]1CCCCN1C(C)C	0	0.05
CN(C)C(=O)CN1CCCN(c2nccc(N3CCC(O)CC3)n2)CC1	2	-0.37
